Laboratory results as given in article PMC4336329 (PLoS ONE, 2015).
Among all 310,000 compounds or so, about 14,000 (4.5%) showed an effect of 50% or more. Effects have a minus sign here. This is one part of the list.

Each compound was assayed against human ether-à-go-go-related gene (hERG) potassium channel (human, UniProt Q12809) (assay: primary screen, population patch clamp on CHO cells stably expressing hERG).
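Further: peak tail current of the secondary pulse compared with the same well before compound.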

Sequence of human ether-à-go-go-related gene (hERG) potassium channel (Q12809 whole entry, looked up): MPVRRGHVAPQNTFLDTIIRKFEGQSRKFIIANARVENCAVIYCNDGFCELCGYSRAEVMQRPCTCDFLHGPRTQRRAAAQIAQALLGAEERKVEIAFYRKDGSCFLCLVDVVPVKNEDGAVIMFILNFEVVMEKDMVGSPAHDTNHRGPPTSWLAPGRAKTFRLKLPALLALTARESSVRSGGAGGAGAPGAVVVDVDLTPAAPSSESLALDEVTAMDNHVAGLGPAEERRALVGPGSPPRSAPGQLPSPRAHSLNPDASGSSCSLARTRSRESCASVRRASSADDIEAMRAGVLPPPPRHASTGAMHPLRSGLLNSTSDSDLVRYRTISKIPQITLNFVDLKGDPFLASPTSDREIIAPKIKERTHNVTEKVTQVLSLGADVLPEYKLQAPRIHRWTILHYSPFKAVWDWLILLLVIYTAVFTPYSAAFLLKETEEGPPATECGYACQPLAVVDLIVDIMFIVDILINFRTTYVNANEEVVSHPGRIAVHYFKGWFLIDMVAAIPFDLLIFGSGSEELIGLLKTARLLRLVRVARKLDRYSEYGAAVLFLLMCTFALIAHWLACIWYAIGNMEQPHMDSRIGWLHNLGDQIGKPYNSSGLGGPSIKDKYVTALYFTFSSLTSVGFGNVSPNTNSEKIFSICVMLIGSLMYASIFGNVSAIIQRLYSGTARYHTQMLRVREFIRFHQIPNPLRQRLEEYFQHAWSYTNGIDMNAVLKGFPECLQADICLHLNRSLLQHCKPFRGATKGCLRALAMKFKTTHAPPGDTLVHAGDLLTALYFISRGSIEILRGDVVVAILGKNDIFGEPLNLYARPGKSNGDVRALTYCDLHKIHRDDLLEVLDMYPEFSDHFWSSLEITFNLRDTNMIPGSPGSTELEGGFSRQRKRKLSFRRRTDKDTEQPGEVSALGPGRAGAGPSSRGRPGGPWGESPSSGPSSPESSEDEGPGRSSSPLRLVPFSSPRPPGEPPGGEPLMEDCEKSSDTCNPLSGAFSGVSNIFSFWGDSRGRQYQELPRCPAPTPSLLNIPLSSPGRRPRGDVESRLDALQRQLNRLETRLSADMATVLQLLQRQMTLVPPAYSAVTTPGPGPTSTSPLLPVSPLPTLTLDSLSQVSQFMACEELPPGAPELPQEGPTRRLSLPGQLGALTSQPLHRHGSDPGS

Compound	hERG current change (%, negative = inhibition) at 10uM [%]
Cc1cc2nnc(SCC(=O)Nc3cc(S(=O)(=O)N4CCOCC4)ccc3Cl)n2c2ccccc12	-20.5
CCN(CC)c1ccc(C(=S)NC2CCCCC2)cc1	12.6
Cc1ccc(C)c(Cn2c(=O)n(CCC(=O)NCc3ccco3)c(=O)c3ccccc32)c1	-14.1
CC1CC(=O)Nc2ccccc2N1S(=O)(=O)c1ccc(C(F)(F)F)cc1 (stereo not drawn)	11.2
C[N+](C)(N)CCOC(=O)C(O)(c1ccccc1)C1CCCCC1.[Br-] (stereo not drawn)	-21.4
O=C(c1ccc(CN2CCOCC2)cc1)N1CCC(Cc2ccccc2)CC1	-3.35
CCOc1ccc(NC(=O)Cn2c(=O)oc3cc(Cl)ccc32)cc1	14.6
O=C(NCCC1=CCCCC1)N[C@@H](Cc1ccccc1)C(=O)O	7.41
CN1CCN(C(=O)C(Cc2ccccc2)NS(=O)(=O)c2ccc3c(c2)CCC(=O)N3)CC1 (stereo not drawn)	-3.56
COC(=O)c1ccc(S(=O)(=O)N2CCN(C(c3ccccc3)c3ccccc3)CC2)n1C	3.6
COc1cc(C(=O)NC(=S)NNC(=O)c2ccc3c(c2)OCO3)cc(OC)c1OC	8.08
Cc1ccc(/C=C(\C#N)C(=O)Nc2c(C)cccc2C)s1	-1.03
CC1(C)CC(=O)C(C=NCCN2CCN(C(=O)CCl)CC2)=C(O)C1	7.59
CCCCn1c(SCC2CCCO2)nc2cc(S(N)(=O)=O)ccc21 (stereo not drawn)	-43.1
O=C(CCc1ccccc1)NCc1ccc2c(c1)OCO2	4.27
CC(C)Oc1nc(-c2ccccc2Cl)nc2ccccc12	19.1
CCN(CC(=O)NCc1cccs1)C(=O)COc1ccccc1C#N	-6.06
CC1CCN(C(=O)c2[nH]cnc2C(=O)Nc2ccc(Cl)cc2)CC1	20.7
COc1ccc(C(=O)CSc2nc(SC)ns2)cc1OC	3.84

Compound	hERG current change (%, negative = inhibition) at 10uM [%]
CC(=O)Nc1ccc(S(=O)(=O)N(C)c2nc3ccccc3nc2Cl)cc1	-24.8
Cc1ccc(S(=O)(=O)N2CCCC2=O)c(C)c1N(C)S(C)(=O)=O	6.49
CCNC(=S)N/N=C/c1cccc(/C=N/NC(=S)NCC)c1	21.5
O=C(CCc1nc2ccccc2c(=O)[nH]1)Nc1ccc(F)c([N+](=O)[O-])c1	-26.7
COc1c(/C=C2/C(=O)NC(=O)N(C)C2=O)c(CCN(C)C(=O)c2ccccc2)cc2c1OCO2	7.3
CCOC(=O)C1=C(C)NC(C)=C(C(=O)OCC)C1c1ccc(Br)o1	-5.54
CC(C)c1c(C(=O)N/N=C/c2cccc(OCc3ccc(F)cc3)c2)nnn1-c1nonc1N	24.9
N#CCCn1cc(C(=O)O)c(-c2cccs2)n1	36.2
CCOC(=O)C1=C(O)CCn2c1nc1ccccc12	-6.92
CSc1nc2ccccc2n1C(=O)Oc1ccccc1	-4.58
CC(=O)Nc1ccc(NC(=O)C2CCN(C(=O)NC3CCCCC3)CC2)cc1	16
O=C(Nc1cccc(O)c1)c1cnn2cccnc12	-1.77
Cn1cccc1Cc1nnc(SCC(=O)Nc2cccc(Cl)c2)n1-c1ccc(F)cc1	-46
COc1cc(O)c2c(c1)COC2=O	5.36
Cc1ccc(C(=O)Nc2cccc(-c3ccc(N4CCOCC4)nn3)c2)cc1	-3.27
Cc1cc(-c2nnnn2-c2cc(Cl)cc(Cl)c2)no1	6.06
Cc1ccc(C(=O)NC2CC3CCC(C2)N3)cc1 (stereo not drawn)	28.8
Cc1ccc(CNC(=O)CCC2CCCN(Cc3cccc4cccnc34)C2)o1 (stereo not drawn)	-66
Cc1cccc(C(=O)c2c[nH]cc2-c2ccccc2)c1	1.28

Compound	hERG current change (%, negative = inhibition) at 10uM [%]
O=C(CSc1nc2ccccc2c(=O)n1NC(=O)Cc1ccccc1)NCCc1ccccc1	-14.6
Cl.O=S(=O)(CCC1CCCCN1)c1ccccc1 (stereo not drawn)	8.11
O=c1oc(Cc2ccccc2)nc2ccccc12	27.2
CCCCn1c(SCC(=O)N2CCCC2)nc2cc(S(N)(=O)=O)ccc21	9.3
COc1ccc(Nc2ncccc2C(=O)Nc2ccccc2)cc1	-9.63
O=C(NCCc1ccccc1)C1CCN(C(=O)Nc2ccccc2)CC1	8.37
Cn1c(=O)oc2cc(S(=O)(=O)N3CCc4ccccc43)ccc21	-16.8
CC1CCCN(C(=O)CNC(=O)c2cccs2)C1 (stereo not drawn)	3.17
COc1ccc(NC(=O)c2ccc(C(=O)c3cc(OC)ccc3OC)cc2)cc1	8.73
COc1cc(CN2CCNC(=O)C2CC(=O)NCCCN2CCOCC2)cc(OC)c1 (stereo not drawn)	21.5
CCCCN(C)CCNC(=O)c1c[nH]c2ccc(S(=O)(=O)N(CC)CC)cc2c1=O	-1.8
O=C(NC1CC1)C1CCN(c2nc3ccccc3s2)CC1	-5.63
Cc1cccc(N(CC(=O)NCC2CCCO2)C(=O)CCC(=O)Nc2cc(C)on2)c1 (stereo not drawn)	4.8
COc1ccc(N2C(=O)CSC2c2ccc3c(c2)OCO3)c(OC)c1 (stereo not drawn)	-3.71
CC(C(=O)N1CCCCC1)n1ncn2cccc2c1=O (stereo not drawn)	2.12
Cc1ccc(-c2nn(-c3ccccc3)cc2C(=O)NN2CCN(C)CC2)cc1.Cl	19.1
O=C(CSc1cccc[n+]1[O-])Nc1cccc(Oc2ccccc2)c1	-10.5
O=C(NCc1ccco1)c1cc2nc(-c3cccs3)cc(C(F)(F)F)n2n1	-17.6
CN(C)CCCN(C(=O)c1nc2ccccc2s1)c1nc2ccc(F)cc2s1.Cl	4.17
